Our source for the T/C values is PubChem BioAssay AID248 (DTP/NCI, 2004).

The test has as its system L1210 leukemia ip in BDF1 mice, survival T/C. The test can be described thus: NCI In Vivo Anticancer Drug Screen. Data for tumor model L1210 Leukemia (intraperitoneal) in B6D2F1 (BDF1) mice. Particulars: endpoint: mean survival time, higher = longer survival.

Inconclusive results and toxic doses are left out. For part of its entries the source gives two or more results. This is not the full list of results. An entry can have further records. Results that share an entry are repeated measurements in other runs, samples, wells, individuals or studies.

On to `O=Cc1c2ccccc2cc2ccccc12`, for which the T/C is 97 % of control and 157 % of control (dose: 9.7 mg/kg/injection, schedule: Q01DX015 (ip), vehicle: saline); 93 % of control, 98 % of control, 158 % of control (dose: 16.2 mg/kg/injection, schedule: Q01DX015 (ip), vehicle: saline); 96 % of control, 107 % of control, 151 % of control (dose: 27.0 mg/kg/injection, schedule: Q01DX015 (ip), vehicle: saline). Turning to `CN(CCO)C1=C(N2CC2)C(=O)C(N(C)CCO)=C(N2CC2)C1=O`, the T/C (dose: 0.37 mg/kg/injection, schedule: Q04DX003 (ip), vehicle: saline) was 114 % of control and 157 % of control. With `CC(=O)OCC1OC(n2ccc(NC(=S)Nc3ccn(C4OC(COC(C)=O)C(OC(C)=O)C4OC(C)=O)c(=O)n3)nc2=O)C(OC(C)=O)C1OC(C)=O` (configuration not stated), the T/C runs as follows: (dose: 200.0 mg/kg/injection, schedule: Q01DX009 (ip), vehicle: saline) 98 % of control and 179 % of control; (dose: 400.0 mg/kg/injection, schedule: Q01DX009 (ip), vehicle: saline) 98 % of control and 173 % of control. Take `[Cl][Pt+2][Cl].[NH-]c1ccc(Cl)cc1[NH-]`: the T/C was 118 % of control and 180 % of control (dose: 200.0 mg/kg/injection, schedule: Q04DX003 (ip), vehicle: saline); 100 % of control and 152 % of control (dose: 400.0 mg/kg/injection, schedule: Q04DX003 (ip), vehicle: saline). In the case of `CCOc1cccc(NNc2ccccc2OCC)c1`, the T/C (dose: 100.0 mg/kg/injection, schedule: Q01DX001 (ip), vehicle: other) was 92 % of control and 155 % of control.

Consider `O=NN(CCCl)C(=O)Nc1ccccc1`, for which, for the setting “dose: 12.0 mg/kg/injection, schedule: Q01DX Z (ip), vehicle: carboxymethylcellulose (CMC)”, the T/C is given as 107 % of control, 182 % of control, 197 % of control. Turning to `CCCC(=O)OCC1OC(n2cnc3c(=S)nc(N)[nH]c32)C(OC(=O)CCC)C1OC(=O)CCC` (configuration not stated), the T/C (dose: 8.0 mg/kg/injection, schedule: Q01DX Z (ip), vehicle: carboxymethylcellulose (CMC)) is 118 % of control and 157 % of control.

As to `CC1CN1P(=O)(N1CCCCC1)N1CC1C` (configuration not stated), for the setting “dose: 38.0 mg/kg/injection, schedule: Q01DX Z (ip), vehicle: saline”, the T/C is 106 % of control and 150 % of control.
